PubChem BioAssay AID743279 (National Center for Advancing Translational Sciences (NCATS), 2014)
Hit rate of the full screen: of about 360,000 compounds, about 17,000 (4.7%) were called active. This list was built around the results that the source calls inconclusive (neither active nor inactive); the mix of calls is not that of the screen. No stated cut-off is given here; in the data, active means activity change below about -50%; inconclusive means mostly about -30% to -49%; inactive means weaker than that.
On the % scale 0 is the no-effect control and ±100 the full control effect.

Experiment: qHTS for Inhibitors of Inflammasome Signaling: IL-1-beta AlphaLISA Primary Screen
Conditions: THP-1 LPS/ATP IL-1B secretion, 16 h; at 57.5 µM, stronger effect = lower value
Procedure, shortened: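 Secreted IL-1B measured by AlphaLISA bead assay after 16 h compound exposure of THP-1 cells; compounds (final up to 57.5 uM) added 1 h before LPS (250 ng/mL) and ATP (1.25 mM) stimulation; lower signal means less secretion.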
For `CN(CC(=O)Nc1ccc(Cl)cc1)CC(=O)Nc1cccc2ccccc12`, the activity change was inconclusive: -35.2%. In the case of `COCCC(=O)N1CCC(Oc2ccc(C(=O)N3C[C@@H]4CCC[C@H]3C4)cc2)CC1`, the activity change is reported as inactive: 0.818%. For `CCCCc1c(-c2ccc(Cl)cc2)ncn1CCc1ccccc1OC`, the activity change was active: -109%. In the case of `CCCN(C(=O)Cn1ncc2c(=O)oc3ccccc3c21)c1cccc(C)c1`, the activity change is reported as inactive: 14.2%. For `COc1ccc(C)cc1-n1c(SCC(=O)NC2CC2)nc2ccccc2c1=O`, the activity change was inconclusive: -47.3%. With `CCN1CCN(c2ccc(S(=O)(=O)N3CCOCC3)cc2NC(=O)/C=C/c2ccc(OC)c(OC)c2)CC1` the activity change was inconclusive: -31.8%. With `O=[N+]([O-])c1ccccc1S(=O)(=O)N1CCN(Cc2ccc3c(c2)OCO3)CC1` the activity change was inconclusive: -33.2%. For `CN(C)CCN(C(=O)/C=C/c1cccs1)c1nc2c(F)cc(F)cc2s1`, the activity change was active: -96.7%. In the case of `O=C(CN(c1ccc(Br)cc1)S(=O)(=O)c1ccc(Cl)c([N+](=O)[O-])c1)NCC1CCCO1` (stereo unspecified), the activity change is reported as active: -98.5%. In the case of `CCOP(=O)(OCC)c1nc(-c2ccc(F)cc2)oc1NCc1ccccc1`, the activity change is reported as active: -54.1%. With `COc1ccc(Cl)cc1-c1cc(C(=O)Nc2ccc(C)c(NS(C)(=O)=O)c2)[nH]n1` the activity change was inconclusive: -39.7%. For `CCc1cccc(OCC(O)Cn2c(N3CCCCC3)nc3c2c(=O)[nH]c(=O)n3C)c1` (stereo unspecified), the activity change was inconclusive: -44.8%. For `CCC/C=C/c1ccc(CN2C(C)C(=O)N(Cc3cn(CCOCOC)nn3)CCS2(=O)=O)cc1` (stereo unspecified), the activity change was inactive: 12.4%. In the case of `CCCCCCn1c(=O)n2n(c1=O)[C@@H]1CN(S(=O)(=O)c3ccc(C)cc3)C[C@]1(O)[C@@H](OC(=O)NCc1ccccc1)C2`, the activity change is reported as active: -71.3%. For `Cc1ccc(Cn2c(SCC(=O)N(C)C3CCS(=O)(=O)C3)nc3ccccc3c2=O)cc1` (stereo unspecified), the activity change was active: -54.8%. In the case of `O=C(Nc1ccc2c(c1)CCC2)c1cc(F)cc(F)c1`, the activity change is reported as inconclusive: -44%. In the case of `COc1ccc(CNc2nccn3ccnc23)cc1`, the activity change is reported as inconclusive: -41.8%. With `CCN(CC)CCn1c(NCc2cccc(OC)c2)nc2ccccc21` the activity change was inconclusive: -31.3%. In the case of `O=C(CSc1nnc(COc2ccc(Cl)cc2)o1)N1c2ccccc2CCc2ccccc21`, the activity change is reported as inconclusive: -37.4%. In the case of `O=C(NC(=S)NCc1ccccc1)c1ccc2c(c1)OCO2`, the activity change is reported as inactive: -20.3%. For `CCOc1ccccc1-n1cnc(C#N)c1N`, the activity change was inactive: 23.7%. In the case of `CCCN(Cc1cc2cc(C)ccc2[nH]c1=O)C(=O)c1cccc(OC)c1`, the activity change is reported as inconclusive: -49.6%. With `COc1ccc(NCC(=O)Nc2ccc(Cl)cc2C)c(OC)c1` the activity change was inconclusive: -48.4%. With `Cc1ccc(C(=O)NCCSc2ccccc2)cc1S(=O)(=O)Nc1ccccc1` the activity change was inconclusive: -34.9%. With `COc1ccc(NC(=O)C2(C)CCN2Cc2cccc(OC)c2F)cc1OC` (stereo unspecified) the activity change was inconclusive: -31.5%. For `O=C(/C(=C/c1ccc(Cl)cc1)c1nc2ccccc2[nH]1)c1cccs1`, the activity change was active: -112%. For `CCN(CC)S(=O)(=O)c1ccc(N2CCOCC2)c(NC(=S)NC(=O)c2ccco2)c1`, the activity change was inconclusive: -34.5%. In the case of `Oc1ccc(-c2nccc(-c3ccc(Cl)cc3Cl)n2)cc1`, the activity change is reported as inconclusive: -36.8%. With `CCOC(=O)c1ccc(-n2ccnc2)c(NC(=O)c2cccc(Br)c2)c1` the activity change was inactive: 2.45%. In the case of `N=C1C(c2nc3ccccc3s2)=C(O)CN1NC(=O)c1ccc([N+](=O)[O-])cc1`, the activity change is reported as active: -90.6%. For `O=S(=O)(NCc1ccc(F)cc1)c1cc(Br)ccc1Br`, the activity change was inactive: -2.4%. In the case of `COC(=O)[C@@]12C[C@@H](CC(=O)NCc3ccc(C)o3)C(=O)N(CCc3ccc(OC)c(OC)c3)C1=CCC(C)(C)C2`, the activity change is reported as inconclusive: -43%. In the case of `COc1ccc(NC(=O)c2ccccc2SCc2ccccc2)cc1`, the activity change is reported as inconclusive: -45.9%. In the case of `CCN(CC)CCCNc1cc(C(F)(F)F)c(C#N)c2nc3ccccc3n12`, the activity change is reported as inconclusive: -30.4%. With `O=C(CSc1nc(Nc2ccccc2)nc(N2CCOCC2)n1)Nc1ccc(Br)cc1F` the activity change was inactive: 0.226%. For `CCOc1ccccc1/C=N\Nc1cnn(Cc2ccccc2)c(=O)c1Cl`, the activity change was inconclusive: -43.8%. With `Cc1ccc(F)cc1C(=O)N1CCCC(c2cc(C(=O)NCc3ccc(F)cc3)no2)C1` (stereo unspecified) the activity change was inconclusive: -36.9%. In the case of `COc1ccc(NC(=O)c2cc(C)cc(C)c2)cc1[N+](=O)[O-]`, the activity change is reported as inconclusive: -40.3%. In the case of `Cc1sc(NC(=O)CN(Cc2ccc(F)cc2)C(=O)C(C)C)c(C(N)=O)c1C`, the activity change is reported as inconclusive: -39.4%. For `COc1ccc(C(C)(O)c2nc(-c3cccc(O)c3)cs2)cc1` (stereo unspecified), the activity change was inconclusive: -49.1%. In the case of `Cc1cccc(C)c1NC1=NC2(CCCCC2)N=C(N)N1`, the activity change is reported as inconclusive: -34.6%. For `Cc1ccc(OCc2ccc([N+](=O)[O-])cc2)c([N+](=O)[O-])n1`, the activity change was inactive: 2.9%. In the case of `CCOC(=O)c1cnc(-n2nc(C)cc2C)nc1NC1CCCCC1`, the activity change is reported as active: -100%. In the case of `CCCC(CCC)C(=O)Nc1cccc(-c2cn3c(n2)SCC3)c1`, the activity change is reported as inactive: -4.34%. For `COCCCN(C(=S)Nc1cc(Cl)cc(Cl)c1)C(C)c1ccncc1` (stereo unspecified), the activity change was active: -68.1%. For `CC(=O)c1cccc(NC(=O)Nc2csc3c2CCCC3)c1`, the activity change was inconclusive: -33.5%. With `CCCCNC(C(=O)Nc1ccc(Cl)c([N+](=O)[O-])c1)c1ccccc1` (stereo unspecified) the activity change was inconclusive: -47.9%. With `COc1ccc(Cl)cc1NC(=S)NNC(=O)C1(C)CC1(Cl)Cl` (stereo unspecified) the activity change was inconclusive: -35.2%. With `CN(CC(=O)N1CCN(Cc2ccccc2)CC1)S(=O)(=O)c1ccc(Br)cc1` the activity change was inactive: -2.98%. For `COc1ccc(-c2cc(=O)c3c(O)cc(O)cc3o2)cc1`, the activity change was inconclusive: -34.7%. For `CN(C)C(=O)C1C2NC(=S)N(c3cccc(Cl)c3)C1(C)Oc1ccc(Cl)cc12` (stereo unspecified), the activity change was inconclusive: -30.8%. With `CCOC(=O)c1c(NC(=O)CN(C)C)sc(C(=O)N(CC)CC)c1C` the activity change was inactive: -5.22%. For `CC(C)(C)OC(=O)N1CCC[C@H]1c1nnc(SCc2ccc(Cl)cc2Cl)o1`, the activity change was inconclusive: -37.5%. For `COc1ccc(-c2cc(C(F)(F)F)nc(SCCC(=O)N3CCOCC3)n2)cc1`, the activity change was inconclusive: -48.5%. In the case of `Clc1ccccc1Cn1c(/C=C/c2ccco2)nc2ccccc21`, the activity change is reported as inconclusive: -38.8%. For `CCOc1ccccc1C(=O)N1CCN(C(c2ccccc2)c2ccccc2)CC1`, the activity change was active: -83.3%. For `O=C(O)CCCNc1cc(N2CCN(C(=O)c3ccco3)CC2)c2noc3c2c1C(=O)c1ccccc1-3`, the activity change was inconclusive: -48%. In the case of `CCOn1c(=O)c(-c2cccs2)[n+]([O-])c2ccccc21`, the activity change is reported as inconclusive: -40.2%. For `COc1ccc(C2CC(c3ccc(Br)cc3)=NN2C(=O)CN2CCCC2)cc1` (stereo unspecified), the activity change was active: -62.3%. For `O=C(Nc1ccc([N+](=O)[O-])cc1)Nc1ccc(OC(F)F)c(Cl)c1`, the activity change was active: -88.8%. With `C/C(=N/NC(=O)CNC(=O)c1cccnc1)c1ccc(Cl)c(Cl)c1` the activity change was inconclusive: -31.1%. For `CC(C)(C)NC(=O)COC(=O)c1snc(C(=O)NC2CCCCC2)c1N`, the activity change was inconclusive: -40.7%. For `COc1ccc2c3c(c(=O)oc2c1OCC(N)=O)CCCC3`, the activity change was inconclusive: -39.8%. For `COc1cccc(CN(C)C(=O)c2ccc(Cl)c(S(=O)(=O)N3CCCCCC3)c2)c1OC`, the activity change was active: -53.3%. With `CCn1cnc2cc(NCc3nc4ccccc4n3Cc3ccccc3)ccc21` the activity change was inactive: -12.9%. In the case of `COc1ccc(Cl)cc1-c1nc(SCC(=O)NC2CCCC2)n[nH]1`, the activity change is reported as inconclusive: -46%. For `COc1ccc(CCNC(=O)CN2c3cccc4cccc(c34)S2(=O)=O)cc1`, the activity change was inconclusive: -33.8%. In the case of `CCCCc1c(-c2cccc(F)c2)ncn1CCc1ccccc1OC`, the activity change is reported as active: -74.2%. In the case of `C=CCNC(=S)N/N=C/c1ccc(-c2cc(Cl)ccc2Cl)o1`, the activity change is reported as inactive: 2.07%. With `CCn1cc(/C=C(\NC(=O)c2ccc(OC)cc2)C(=O)NCCCn2ccnc2)c2ccccc21` the activity change was inconclusive: -39.4%. With `CCCS(=O)(=O)c1nc(S(=O)(=O)c2ccc(C)cc2)c(N2CCN(CC)CC2)s1` the activity change was inconclusive: -45.1%. In the case of `Cc1ccc(CNC(=O)c2ccc([N+](=O)[O-])o2)cc1`, the activity change is reported as inconclusive: -42.9%. In the case of `COc1ccc(-c2cc(C(=O)Nc3cc(Cl)ccc3O)no2)cc1`, the activity change is reported as inconclusive: -30.8%. With `CCCCn1c(N)nc2ccccc21` the activity change was inactive: 9.74%. In the case of `O=C(CCl)c1ccc2c(c1)CCN2C(=O)C1CCCCC1`, the activity change is reported as active: -103%. For `CCN1CCN(c2ncnc3c2cnn3-c2ccc(C)cc2C)CC1`, the activity change was inconclusive: -31.9%. In the case of `O=C(CCl)Nc1cn(-c2ccccc2)nc1-c1ccccc1`, the activity change is reported as active: -97.5%. With `Cc1cccc(N2CCN(C(c3ccccc3)c3nnnn3CC3CCCO3)CC2)c1C` (stereo unspecified) the activity change was inconclusive: -44.3%. In the case of `Cc1nc(N2CCN(Cc3ccc(Cl)cc3)CC2)c2oc3ccccc3c2n1`, the activity change is reported as active: -63.4%. For `CC(=O)Oc1ccc(C2OC(=O)c3ccccc3N2C(C)=O)cc1` (stereo unspecified), the activity change was inconclusive: -35.2%. For `CC(OC(=O)Cc1n[nH]c(=O)c2ccccc12)C(=O)Nc1cc(Cl)cc(Cl)c1` (stereo unspecified), the activity change was inactive: 33.3%. In the case of `Cc1ccccc1OCCCC(=O)Nc1nccs1`, the activity change is reported as inconclusive: -49.7%. With `C=CCSc1nc2ccccc2n1C(=O)/C=C/c1cc(OC)c(OC)c(OC)c1` the activity change was active: -104%. In the case of `COc1cc(SC)ccc1C(=O)Nc1cccc(C2OCCCO2)c1`, the activity change is reported as inconclusive: -46.3%. In the case of `COC(=O)C1CCN(C2CN(C3CCCCC3)S(=O)(=O)C2)CC1` (stereo unspecified), the activity change is reported as inconclusive: -46.9%. For `O=C1CC(c2ccccc2)Oc2ccc(Cl)cc21` (stereo unspecified), the activity change was inconclusive: -47.2%.
